Test results published in the supplement of paper PMC11417369.
± gives the standard deviation of the averaged measurements. The list shows a part of the results.

Test system: PfAP2-LT AP2 domain (GST-tagged)
Test: gcPBM binding intensity (ln(normalized median fluorescence intensity)); higher = stronger DNA binding
In short: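 An Agilent 4 × 180k array carrying primer-extended double-stranded 36-bp intergenic genomic probes and negative controls received GST-tagged P. falciparum DNA-binding domains expressed in E. coli, about 25 μg on average, for 1 h. The binding buffer contained 1× PBS, 1% milk, 0.2 mg/ml BSA, 0.5% salmon testes DNA and 0.03% Triton X-100. Binding intensity is the top Masliner-normalised natural-log median intensity across replicate spots of either probe orientation, read after Alexa488 anti-GST antibody staining and a 488 nm scan.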

Row | Sequence | gcPBM binding intensity (ln)
1 | TATTATTTACCTTGCTAGTTCGTTCCAAATTTTATG [XGTACX_negctrl_site197] | 8.89 ± 0.49
2 | TTTTTTTTTTTTTTTACACACACAAAATATTATATG [CACACA_site2471] | 9.2 ± 0.41
3 | AAAACTATAATAAAAGGTACACATTTATTTTTTTCT [XGTACX_site730] | 8.6 ± 0.49
4 | AAAACAAATTTTAATGAGAATATGAAAAAAAAATAT [XGTACX_negctrl_site268] | 8.56 ± 0.49
5 | CTTTGTGGTATAGATACACACTATATTAATATGAAC [CACACA_site7081] | 8.78 ± 0.45
6 | AAATAAAAAGGGTGCACACAAAAATATATATATATA [CACACA_site1728] | 9.66 ± 0.18
7 | ATTTTAAATATTTGTGGTACCCCTTTTTTGTAACAA [XGTACX_site5590] | 8.61 ± 0.49
8 | CAAAATTGAAGGAACACACATACATATATATATATG [CACACA_site179] | 9.08 ± 0.41
9 | TAAAAAAGAACAGAAACACACAAATAAAATAAAATT [CACACA_site1758] | 9.1 ± 0.52
10 | ATTTATTTATGTATTTGTACGTATATATTTATGCAT [XGTACX_site5218] | 9.17 ± 0.38
11 | ATAATATTTTTAAACTGTACTTTTATAAACACTTAT [XGTACX_site2625] | 8.68 ± 0.44
12 | TTTTTTTCGTATATTACACACTATAAATAGAAATTA [CACACA_site6278] | 8.42 ± 0.4
13 | TCATATTTTACATATGCATGTTAATAATACAAACAT [TGCATGCA_site994] | 8.68 ± 0.36
14 | TTAACATCAAAATATGCACACAAACAATTAGCGGTA [CACACA_site8801] | 9.12 ± 0.39
15 | TATATATATAAATACACACACACCCTAAAAATATAT [CACACA_site4970] | 9.9 ± 0.11
16 | ATATTATGTCTACATAAACACACATATATATAAAAA [CACACA_site7976] | 8.82 ± 0.39
17 | AATAGTTATAAATATAAATATATATATATATATATA [CACACA_negctrl_site414] | 9.22 ± 0.4
18 | AATAAATATTCATTTTGTACATATTTTTCGTATATG [XGTACX_site6104] | 8.86 ± 0.5
19 | TTACCATAAGTATGTGGTACACTTTAAATGAAGATA [XGTACX_site6972] | 8.53 ± 0.43
20 | TTATATATAATATGACGTACAATTATACATTTTATG [XGTACX_site7598] | 8.71 ± 0.51
21 | ATAAATATTTATAACAGTACATATTTACTATCCTAA [XGTACX_site4497] | 8.54 ± 0.45
22 | ACGATTAAATCGATAATACACACTAAATGTAAAACA [CACACA_site119] | 8.96 ± 0.45
23 | TATACACATATTTTTACACACATATTTTTTCATATA [CACACA_site7244] | 9.05 ± 0.39

Row | Sequence | gcPBM binding intensity (ln)
24 | AGAAAAGATAAAAATAGTACATATATATTTACTTAT [XGTACX_site7820] | 8.63 ± 0.52
25 | TATATTATTTTTAGAAGTACTTATTGTTATAATTCT [XGTACX_site1015] | 8.53 ± 0.5
26 | CTCCTTTCAAAAAAATGTACATGTTTACATTTCAAG [XGTACX_site7342] | 8.62 ± 0.42
27 | TATATCAAAATACATACACACATTTGTATTTACATT [CACACA_site5485] | 9.03 ± 0.37
28 | ATTTTAATTTGTTATACACACACAAAAAAAATTATA [CACACA_site9306] | 8.88 ± 0.32
29 | TTTTTTTTTAATCATGCACACTGTTAAAAGAATAAA [CACACA_site4817] | 8.27 ± 0.45
30 | TATAAAAAAATATATATATATATTATATGTGTAGAA [TGCATGCA_negctrl_site391] | 8.71 ± 0.54
31 | ATTTATTTGAAGAATTGTACTAAATTATATAGCGGT [XGTACX_site4998] | 8.56 ± 0.36
32 | TGCTTATTTAGAATTGTGCACAGCGAATATTCTGTT | 8.97 ± 0.46
33 | TACATTTATACTACTGCATTCAAAAAAAATAAAAAA [TGCATGCA_negctrl_site157] | 8.34 ± 0.44
34 | TTTTGTTATTTTTCAGTGCAATATGATAATAATATA | 8.45 ± 0.39
35 | GAATCCTTAATATGAACACACAAATATATTACCCAT [CACACA_site186] | 9.05 ± 0.42
36 | AGAATTTTATTATATTGTACTTTTTATAAACCTTGT [XGTACX_site7495] | 8.69 ± 0.53
37 | TCTTTTTAACAAAAAAAAAAAAAAAAAAAAAAATTA [CACACA_negctrl_site1637] | 7.96 ± 0.43
38 | TAGGAAAAAAATACAGTGCAATTTTTATATAAATAA [GTGCAC_site9979] | 8.6 ± 0.58
39 | TTTTTTTTTTTTTTGTGTACTAATATTATAAATTTT [XGTACX_site4405] | 8.48 ± 0.51
40 | TACATATTTTATAACTGTACTTTTTTATTATCCAAT [XGTACX_site5396] | 8.71 ± 0.47
41 | TTTATATAAATCAAATGTACATATTCCAAATATATA [XGTACX_site8515] | 8.45 ± 0.34
42 | TTTTTTTTTTCAAATACATGCATTTATGTATAATAC [TGCATGCA_site722] | 8.62 ± 0.49
43 | ATATATTTTTAATTTGCATGTAGTAAAGCCTTAAAT [TGCATGCA_site593] | 8.53 ± 0.36
44 | CATCAAGTGAATTGTTGTACTTTACATTGTTTTTAT [XGTACX_site7261] | 9.2 ± 0.5
45 | TATAAATTTTGTTTAGCACACACACCGACATACATA [CACACA_site9033] | 9.46 ± 0.27
46 | ATATATATATATATATGTACATACATACAATCATAT [XGTACX_site6410] | 9.71 ± 0.28

Row | Sequence | gcPBM binding intensity (ln)
47 | ATGTTGTACAGACACACACACAAAAAAAAAATAAAA [CACACA_site7184] | 9.46 ± 0.56
48 | TATAATAGCTTCTTTACACACACCATTTTTTTTTTT [CACACA_site1456] | 9.21 ± 0.4
49 | CTTACATATTACATATGTACATATACACCTTATGTC [XGTACX_site4679] | 9.19 ± 0.41
50 | ATATATTTACTTAATACACACAAAAAAAAAAAAAAA [CACACA_site3657] | 8.62 ± 0.43
51 | TTTAATTTTTATATAACACACATATTGGAATTATGT [CACACA_site734] | 8.94 ± 0.4
52 | TTTTTTACATACAGAAATATATAATATAAAATAAAT [GTGCAC_negctrl_site278] | 8.35 ± 0.33
53 | TTAAATGTGAAGTGAATACACACCTAATAAATATAA [CACACA_site3194] | 8.77 ± 0.35
54 | TTATGTATTACCTGCCGTACTTCTAAAATAATTAAA [XGTACX_site1716] | 8.52 ± 0.46
55 | TGTTACAAAAAATAATGTACTTAATATATATATATA [XGTACX_site1016] | 8.71 ± 0.33
56 | TATCTTCATTTTTTTGGTACGCACGCAAATATGGCT [XGTACX_site3107] | 8.99 ± 0.46
57 | ACTGTCATTTATTGTAGTACGTCAATTTATTACATT [XGTACX_site2749] | 9.21 ± 0.52
58 | TATAATATGTTATATACACACATTATAAAATACACA [CACACA_site6742] | 9.04 ± 0.32
59 | TAATAATAAATAAAATGTACATATGAACAAATAAGT [XGTACX_site6710] | 9.18 ± 0.43
60 | AAAAAAAAAATTAATTGTACTAAAAAAATATTATAT [XGTACX_site8903] | 8.37 ± 0.45
61 | TGAATATTCATGTGTGTGCGCATGTTGTTAGACCAT [GTGCAC_site9869] | 9.62 ± 0.46
62 | TAAATACATTTATGTACACACACATAGATGTATATT [CACACA_site5618] | 9.22 ± 0.36
63 | TGTTTTCTTGATTATTGTACTTTAATTAGTAATATG [XGTACX_site8674] | 8.77 ± 0.49
64 | AAAAATATTATAAGCACACATATATATATATATATA [CACACA_site2458] | 9.73 ± 0.49
65 | TACTAACTTTTTAAAAGTACAGAACCATAACCATAA [XGTACX_site7182] | 8.7 ± 0.29
66 | GAATAATCTAGAAACACACAAACACGACAAAAGAAA [CACACA_site4135] | 9.3 ± 0.35
67 | ATATATATATATATATGGTAAAGTAAAAGGAAATAC [XGTACX_negctrl_site45] | 9.25 ± 0.31
68 | AGTCGAATGATGTACACACATACAAAACATTTATGC [CACACA_site4022] | 9.42 ± 0.51
69 | AGTTTATATTATTAAAGTACATATATATATTCTTAA [XGTACX_site3164] | 8.49 ± 0.34

Row | Sequence | gcPBM binding intensity (ln)
70 | ATCATGTTATATATATGTACTAATAATATAATATAA [XGTACX_site1326] | 8.62 ± 0.46
71 | GTTTAAAATCTTTGCACACATATAAATAAATATATT [CACACA_site2555] | 8.9 ± 0.41
72 | AGTATATTAATATAATGTACAAACGTTTATTTTGTA [XGTACX_site5980] | 8.74 ± 0.45
73 | AAATATCTACATATTTGTACATATTTATACATATTT [XGTACX_site6300] | 9.01 ± 0.42
74 | GAAAAGTAGACAATATGTACATATAGTATTTATAAA [XGTACX_site878] | 9.04 ± 0.56
75 | TATATATTATAAAAGAGTACAGAAAGAAAAAAAAAT [XGTACX_site8305] | 8.78 ± 0.5
76 | ATATTCAATATATTATGTACACATATATGAGGATAT [XGTACX_site7019] | 8.89 ± 0.3
77 | AAACTTTTTTTAAAAACACACATATATATTTATATA [CACACA_site4092] | 8.71 ± 0.33
78 | ATAATGTTTCTTTCAACACACAAAAAATGAACCCAT [CACACA_site4947] | 8.93 ± 0.37
79 | TATTTATAAAAAAAATGTACATTTATGTATAAGCTA [XGTACX_site3266] | 8.46 ± 0.4
80 | TAAAAAAGTTATATTACACACTTTATTGGTTAACTT [CACACA_site653] | 8.79 ± 0.47
81 | ACATATAAATTATATACACACAATAATATATATATA [CACACA_site1384] | 9.01 ± 0.39
82 | TATATATAGAAACACACACACACATATATATATATA [CACACA_site4116] | 10.045 ± 0.0071
83 | AAAATTTAATATAATGCACACATAAAAAAAAAATCA [CACACA_site7882] | 8.87 ± 0.42
84 | AATATCAATATTATATGTACTTATAATTTCAATGTA [XGTACX_site2423] | 8.62 ± 0.48
85 | TAAATTTATTAATCAAGTACAAAATAAATTTTTATA [XGTACX_site2745] | 8.25 ± 0.37
86 | AAAAAAAAATATATATGTACATATGTATAATAAAAA [XGTACX_site2110] | 8.86 ± 0.49
87 | ATAAAAATAAATAAATTATATAAATGTAATATGAAA [GTGCAC_negctrl_site663] | 8.59 ± 0.54
88 | TTTAGAGAAGTCAAGTGTACATATAAAATAATTCAC [XGTACX_site4997] | 8.65 ± 0.35
89 | TATTTATTTATATATGCATGCTAATAATTATAACAT [TGCATGCA_site988] | 8.81 ± 0.36
